# Source: the supplement of paper PMC8728848
# The other results are listed elsewhere or left out.
# B1: Surfactant Protein D (Human); Neck + Carbohydrate Recognition Domain (NCRD) (Homo sapiens) (protein)
# chain: MLLFLLSALVLLTQPLGYLEAEMKTYSHRTMPSACTLVMCSSVESGLPGRDRDGREGPRGEKGDPGLPGAAGQAGMPGQAGPVGPKGDNGSVGEPGPKGDTGPSGPPGPPGVPGPAGREGALGKQGNIGPQGKPGPKGEAGPKGEVGAPGMQGSAGARGLAGPKGERGVPGERGVPGNTGAAGSAGAMGPQGSPGARGPPGLKGDKGIPGDKGAKGESGLPDVASLRQQVEALQGQVQHLQAAFSQYKKVELFPNGQSVGEKIFKTAQFVKPFTEAQLLCTQAGGQLASPRSAAENAALQQLVVAKNEAAFLSMTDSKTEGKFTYPTGESLVYSNWAPGEPNDDGGSEDCVEIYTNGKWNDRACGEKRLVVCEF
# What was measured:
# Test in all cases: glycan array binding signal (z-score within array); higher = stronger binding
# Conditions in all cases: glycan notation: IUPAC condensed, linker removed; mutation: F335Y
# [1] = biological target: Neu5Ac(a2-3)Gal(b1-3)[Fuc(a1-4)]GlcNAc
# Outline: (§1)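 Arrays were curated from the Consortium for Functional Glycomics database, 3228 in total, and kept only where the protein sequence was available. Binding is expressed as a within-array Z-score. This score was averaged across arrays of the same protein sequence at different concentrations or buffers and across linkers, and negative values can be read as non-binding.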
# [2] = biological target: Neu5Ac(a2-3)Gal(b1-3)[Fuc(a1-4)]GlcNAc(b1-3)Gal(b1-4)[Fuc(a1-3)]GlcNAc
# Outline: as §1
# [3] = biological target: Neu5Ac(a2-3)Gal(b1-3)[Neu5Ac(a2-3)Gal(b1-4)]GlcNAc
# Outline: as §1
# [4] = biological target: Neu5Ac(a2-3)Gal(b1-3)[Neu5Ac(a2-6)]GalNAc
# Outline: as §1
# Neu5Ac(a2-3)Gal(b1-4)Glc = biological target: Neu5Ac(a2-3)Gal(b1-4)Glc
# Outline: as §1
# [5] = biological target: Neu5Ac(a2-3)Gal(b1-4)GlcNAc
# Outline: as §1
# [6] = biological target: Neu5Ac(a2-3)Gal(b1-4)GlcNAc(b1-2)Man(a1-3)[GlcNAc(b1-2)Man(b1-4)GlcNAc(b1-2)Man(a1-6)]Man(b1-4)GlcNAc(b1-4)GlcNAc
# Outline: as §1
# [7] = biological target: Neu5Ac(a2-3)Gal(b1-4)GlcNAc(b1-2)Man(a1-3)[Neu5Ac(a2-6)Gal(b1-4)GlcNAc(b1-2)Man(a1-6)]Man(b1-4)GlcNAc(b1-4)GlcNAc
# Outline: as §1
# [8] = biological target: Neu5Ac(a2-3)Gal(b1-4)GlcNAc(b1-3)Gal(b1-3)GlcNAc
# Outline: as §1
# [9] = biological target: Neu5Ac(a2-3)Gal(b1-4)GlcNAc(b1-3)Gal(b1-4)GlcNAc
# Outline: as §1
# [10] = biological target: Neu5Ac(a2-3)Gal(b1-4)GlcNAc(b1-3)Gal(b1-4)GlcNAc(b1-3)Gal(b1-4)GlcNAc
# Outline: as §1
# [11] = biological target: Neu5Ac(a2-3)Gal(b1-4)GlcNAc(b1-3)Gal(b1-4)[Fuc(a1-3)]GlcNAc
# Outline: as §1
# [12] = biological target: Neu5Ac(a2-3)Gal(b1-4)GlcNAc(b1-6)[Gal(b1-3)]GalNAc
# Outline: as §1
# [13] = biological target: Neu5Ac(a2-3)Gal(b1-4)GlcNAc(b1-6)[Neu5Ac(a2-3)Gal(b1-3)]GalNAc
# Outline: as §1
# [14] = biological target: Neu5Ac(a2-3)Gal(b1-4)GlcNAc6S
# Outline: as §1
# [15] = biological target: Neu5Ac(a2-3)Gal(b1-4)[Fuc(a1-3)]GlcNAc
# Outline: as §1
# [16] = biological target: Neu5Ac(a2-3)Gal(b1-4)[Fuc(a1-3)]GlcNAc(b1-3)Gal
# Outline: as §1
# [17] = biological target: Neu5Ac(a2-3)Gal(b1-4)[Fuc(a1-3)]GlcNAc(b1-3)Gal(b1-4)GlcNAc
# Outline: as §1
# [18] = biological target: Neu5Ac(a2-3)Gal(b1-4)[Fuc(a1-3)]GlcNAc(b1-3)Gal(b1-4)[Fuc(a1-3)]GlcNAc(b1-3)Gal(b1-4)[Fuc(a1-3)]GlcNAc
# Outline: as §1
# [19] = biological target: Neu5Ac(a2-3)Gal(b1-4)[Fuc(a1-3)]GlcNAc(b1-6)[Gal(b1-3)]GalNAc
# Outline: as §1
# [20] = biological target: Neu5Ac(a2-3)Gal(b1-4)[Fuc(a1-3)]GlcNAc6S
# Outline: as §1
# [21] = biological target: Neu5Ac(a2-3)Gal6S(b1-4)GlcNAc
# Outline: as §1
# [22] = biological target: Neu5Ac(a2-3)Gal6S(b1-4)[Fuc(a1-3)]GlcNAc
# Outline: as §1
# Neu5Ac(a2-3)GalNAc = biological target: Neu5Ac(a2-3)GalNAc
# Outline: as §1
# [23] = biological target: Neu5Ac(a2-3)GalNAc(b1-4)GlcNAc
# Outline: as §1
# [24] = biological target: Neu5Ac(a2-3)[GalNAc(b1-4)]Gal(b1-4)Glc
# Outline: as §1
# [25] = biological target: Neu5Ac(a2-3)[GalNAc(b1-4)]Gal(b1-4)GlcNAc
# Outline: as §1
# [26] = biological target: Neu5Ac(a2-3)[Neu5Ac(a2-6)]GalNAc
# Outline: as §1
# Neu5Ac(a2-6)Gal = biological target: Neu5Ac(a2-6)Gal
# Outline: as §1
# Neu5Ac(a2-6)Gal(b1-4)Glc = biological target: Neu5Ac(a2-6)Gal(b1-4)Glc
# Outline: as §1
# [27] = biological target: Neu5Ac(a2-6)Gal(b1-4)GlcNAc
# Outline: as §1
# [28] = biological target: Neu5Ac(a2-6)Gal(b1-4)GlcNAc(b1-2)Man(a1-3)[Gal(b1-4)GlcNAc(b1-2)Man(a1-6)]Man(b1-4)GlcNAc(b1-4)GlcNAc
# Outline: as §1
# [29] = biological target: Neu5Ac(a2-6)Gal(b1-4)GlcNAc(b1-2)Man(a1-3)[GlcNAc(b1-2)Man(a1-6)]Man(b1-4)GlcNAc(b1-4)GlcNAc
# Outline: as §1
# [30] = biological target: Neu5Ac(a2-6)Gal(b1-4)GlcNAc(b1-2)Man(a1-3)[GlcNAc(b1-2)Man(b1-4)GlcNAc(b1-2)Man(a1-6)]Man(b1-4)GlcNAc(b1-4)GlcNAc
# Outline: as §1
# [31] = biological target: Neu5Ac(a2-6)Gal(b1-4)GlcNAc(b1-2)Man(a1-3)[Neu5Ac(a2-6)Gal(b1-4)GlcNAc(b1-2)Man(a1-6)]Man(b1-4)GlcNAc(b1-4)GlcNAc
# Outline: as §1
# [32] = biological target: Neu5Ac(a2-6)Gal(b1-4)GlcNAc(b1-2)Man(a1-6)[Gal(b1-4)GlcNAc(b1-2)Man(a1-3)]Man(b1-4)GlcNAc(b1-4)GlcNAc
# Outline: as §1
# [33] = biological target: Neu5Ac(a2-6)Gal(b1-4)GlcNAc(b1-2)Man(a1-6)[GlcNAc(b1-2)Man(a1-3)]Man(b1-4)GlcNAc(b1-4)GlcNAc
# Outline: as §1
# [34] = biological target: Neu5Ac(a2-6)Gal(b1-4)GlcNAc(b1-3)Gal(b1-4)GlcNAc
# Outline: as §1
# [35] = biological target: Neu5Ac(a2-6)Gal(b1-4)GlcNAc(b1-3)Gal(b1-4)[Fuc(a1-3)]GlcNAc(b1-3)Gal(b1-4)[Fuc(a1-3)]GlcNAc
# Outline: as §1
# [36] = biological target: Neu5Ac(a2-6)Gal(b1-4)GlcNAc6S
# Outline: as §1
# Neu5Ac(a2-6)GalNAc = biological target: Neu5Ac(a2-6)GalNAc
# Outline: as §1
# [37] = biological target: Neu5Ac(a2-6)GalNAc(b1-4)GlcNAc
# Outline: as §1
# Neu5Ac(a2-8)Neu5Ac = biological target: Neu5Ac(a2-8)Neu5Ac
# Outline: as §1
# [38] = biological target: Neu5Ac(a2-8)Neu5Ac(a2-3)Gal(b1-4)Glc
# Outline: as §1
# [39] = biological target: Neu5Ac(a2-8)Neu5Ac(a2-3)[GalNAc(b1-4)]Gal(b1-4)Glc
# Outline: as §1
# [40] = biological target: Neu5Ac(a2-8)Neu5Ac(a2-8)Neu5Ac
# Outline: as §1
# [41] = biological target: Neu5Ac(a2-8)Neu5Ac(a2-8)Neu5Ac(a2-3)Gal(b1-4)Glc
# Outline: as §1
# [42] = biological target: Neu5Ac(a2-8)Neu5Ac(a2-8)Neu5Ac(a2-3)[GalNAc(b1-4)]Gal(b1-4)Glc
# Outline: as §1
# [43] = biological target: Neu5Ac(a2-8)Neu5Ac(a2-8)Neu5Ac(a2-8)Neu5Ac(a2-3)[GalNAc(b1-4)]Gal(b1-4)Glc
# Outline: as §1
# [44] = biological target: Neu5Ac(b2-6)Gal(b1-4)GlcNAc
# Outline: as §1
# Neu5Ac(b2-6)GalNAc = biological target: Neu5Ac(b2-6)GalNAc
# Outline: as §1
# [45] = biological target: Neu5Ac9Ac(a2-6)Gal(b1-4)GlcNAc
# Outline: as §1
# [46] = biological target: Neu5Gc(a2-3)Gal(b1-3)GlcNAc
# Outline: as §1
# [47] = biological target: Neu5Gc(a2-3)Gal(b1-3)[Fuc(a1-4)]GlcNAc
# Outline: as §1
# Neu5Gc(a2-3)Gal(b1-4)Glc = biological target: Neu5Gc(a2-3)Gal(b1-4)Glc
# Outline: as §1
# [48] = biological target: Neu5Gc(a2-3)Gal(b1-4)GlcNAc
# Outline: as §1
# [49] = biological target: Neu5Gc(a2-3)Gal(b1-4)[Fuc(a1-3)]GlcNAc
# Outline: as §1
# [50] = biological target: Neu5Gc(a2-6)Gal(b1-4)GlcNAc
# Outline: as §1
# Neu5Gc(a2-6)GalNAc = biological target: Neu5Gc(a2-6)GalNAc
# Outline: as §1
# [51] = biological target: Neu5Gc(b2-6)Gal(b1-4)GlcNAc
# Outline: as §1
binder,measurement,setting,value
B1,glycan array binding signal (z-score),[1],-0.188
same,glycan array binding signal (z-score),[2],-0.071
same,glycan array binding signal (z-score),[3],-0.185
same,glycan array binding signal (z-score),[4],-0.166
same,glycan array binding signal (z-score),Neu5Ac(a2-3)Gal(b1-4)Glc,-0.189
same,glycan array binding signal (z-score),[5],-0.188
same,glycan array binding signal (z-score),[6],-0.182
same,glycan array binding signal (z-score),[7],-0.164
same,glycan array binding signal (z-score),[8],-0.184
same,glycan array binding signal (z-score),[9],-0.189
same,glycan array binding signal (z-score),[10],-0.183
same,glycan array binding signal (z-score),[11],-0.164
same,glycan array binding signal (z-score),[12],-0.186
same,glycan array binding signal (z-score),[13],-0.178
same,glycan array binding signal (z-score),[14],-0.19
same,glycan array binding signal (z-score),[15],-0.182
same,glycan array binding signal (z-score),[16],-0.182
same,glycan array binding signal (z-score),[17],-0.172
same,glycan array binding signal (z-score),[18],-0.187
same,glycan array binding signal (z-score),[19],-0.077
same,glycan array binding signal (z-score),[20],-0.191
same,glycan array binding signal (z-score),[21],-0.189
same,glycan array binding signal (z-score),[22],-0.186
same,glycan array binding signal (z-score),Neu5Ac(a2-3)GalNAc,-0.177
same,glycan array binding signal (z-score),[23],-0.176
same,glycan array binding signal (z-score),[24],-0.188
same,glycan array binding signal (z-score),[25],-0.185
same,glycan array binding signal (z-score),[26],-0.192
same,glycan array binding signal (z-score),Neu5Ac(a2-6)Gal,-0.19
same,glycan array binding signal (z-score),Neu5Ac(a2-6)Gal(b1-4)Glc,-0.187
same,glycan array binding signal (z-score),[27],-0.19
same,glycan array binding signal (z-score),[28],-0.18
same,glycan array binding signal (z-score),[29],-0.185
same,glycan array binding signal (z-score),[30],-0.184
same,glycan array binding signal (z-score),[31],-0.174
same,glycan array binding signal (z-score),[32],-0.177
same,glycan array binding signal (z-score),[33],-0.065
same,glycan array binding signal (z-score),[34],-0.188
same,glycan array binding signal (z-score),[35],-0.122
same,glycan array binding signal (z-score),[36],-0.187
same,glycan array binding signal (z-score),Neu5Ac(a2-6)GalNAc,-0.179
same,glycan array binding signal (z-score),[37],-0.19
same,glycan array binding signal (z-score),Neu5Ac(a2-8)Neu5Ac,-0.185
same,glycan array binding signal (z-score),[38],-0.188
same,glycan array binding signal (z-score),[39],-0.189
same,glycan array binding signal (z-score),[40],-0.187
same,glycan array binding signal (z-score),[41],-0.189
same,glycan array binding signal (z-score),[42],-0.188
same,glycan array binding signal (z-score),[43],-0.126
same,glycan array binding signal (z-score),[44],-0.19
same,glycan array binding signal (z-score),Neu5Ac(b2-6)GalNAc,-0.19
same,glycan array binding signal (z-score),[45],-0.183
same,glycan array binding signal (z-score),[46],-0.184
same,glycan array binding signal (z-score),[47],-0.186
same,glycan array binding signal (z-score),Neu5Gc(a2-3)Gal(b1-4)Glc,-0.186
same,glycan array binding signal (z-score),[48],-0.195
same,glycan array binding signal (z-score),[49],-0.177
same,glycan array binding signal (z-score),[50],-0.193
same,glycan array binding signal (z-score),Neu5Gc(a2-6)GalNAc,-0.187
same,glycan array binding signal (z-score),[51],-0.159
